Test results published in PubChem BioAssay (NCI).
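Exposure lasted 48 hours, with cells grown in 96-well plates and compounds tested at five concentrations. Here, GI50 denotes the concentration required for 50% inhibition of growth. TGI marks complete inhibition of growth.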

system: NCI-H322M lung; test: NCI tumour cell line growth inhibition, 48 h

| Structure (SMILES) | TGI | GI50 |
| --- | --- | --- |
| N#CC(c1nc2ccccc2nc1Cl)S(=O)(=O)c1ccccc1 (stereo not drawn) | > 100 µM |  |
| CC(C)(O)CC(=O)NCCn1ccc2ncnc(Nc3ccc(Oc4cccc(C(F)(F)F)c4)c(Cl)c3)c21 | > 10 µM | 0.602 µM |
| COC(=O)c1c(O)ccc2c1c1c(n2Cc2cccc(C)c2)C(=O)c2ccccc2C1=O | 22.2 µM |  |
| CCOc1ccccc1N=Nc1c(C)[nH]n(-c2nc(-c3ccccc3)cs2)c1=O | > 100 µM | 93.2 µM |
| COc1c(O)cc(O)c2c(=O)cc(-c3ccccc3)oc12 | > 100 µM |  |
| COC(=O)C(Cc1ccccc1)NP(=O)(O)OCC1OC(n2cc(F)c(=O)[nH]c2=O)CC1O (stereo not drawn) | > 100 µM |  |
| CC[N+]1(C)CCC(O)(c2ccc(Cl)c(Cl)c2)C(C(=O)c2ccc(Cl)c(Cl)c2)C1 (stereo not drawn) | > 10 µM |  |
| COc1ccc(C(=O)c2cc3c(N)c(C(=O)Nc4cccc5ccccc45)sc3nc2C)cc1 | > 50 µM | 0.3 µM |
| CC(=O)Oc1c2oc3ccc(Cl)cc3c(=O)c2c(O)c2ccsc12 | > 100 µM |  |
| COc1cc([C@H]2OC[C@H]3[C@@H]2CO[C@@H]3c2cc(OC)c3c(c2)OCO3)cc(OC)c1OC | > 100 µM |  |
| Cc1ccc(Nc2nc(C)c(C(/C=C/c3ccc(/C=C/C(=N/NC(=O)C[n+]4ccccc4)c4sc(Nc5ccc(C)cc5[N+](=O)[O-])nc4C)cc3)=N\NC(=O)C[n+]3ccccc3)s2)c([N+](=O)[O-])c1 | > 100 µM |  |
| O=C(Nc1cccc(NC(=O)Nc2cc(C(F)(F)F)ccc2Cl)c1)Nc1cc(C(F)(F)F)ccc1Cl | > 100 µM | 5.8 µM |
| Nc1ncnc2c1nnn2C1CCC(CP(=O)(O)O)C1 (stereo not drawn) | > 100 µM |  |
| O=c1c2ccccc2nc(-c2ccccc2)n1NC1OC(CO)C(O)C(O)C1O (stereo not drawn) | > 100 µM |  |
| COC(=O)c1cc2ccc(OC(C)=O)c(OC(C)=O)c2cn1 | 53.5 µM |  |
| Nc1nc(Nc2ccc(C3CCC(N4CCOCC4)CC3)cc2)nn1-c1ccccn1 (stereo not drawn) | > 100 µM | 21.2 µM |
| COc1cc(C(C)c2cc3c(cc2OCCO)OCO3)cc(OC)c1OC (stereo not drawn) | > 100 µM |  |
| Cc1ccc(N2C(=O)C3C=CC(n4[nH]c(=O)n(Cc5ccccc5)c4=O)CC3C2=O)cc1 (stereo not drawn) | > 100 µM |  |
| COC(=O)[C@H]1CO[C@H]2C/C(C)=C/CC/C(C)=C/CC[C@@]3(C)O[C@@H]3C[C@H]21 | 38 µM |  |
| O=C1c2c(O)cccc2C(C2OC(CO)C(O)C(O)C2O)c2cc(CO)cc(O)c21 (stereo not drawn) | > 100 µM |  |
| C/C=C(\C)C(=O)O[C@H]1C=CC(=O)O[C@@H]1CC[C@H](O)[C@H](C)O | > 100 µM | 80.4 µM |
| Cc1c(NC(=O)CSC(=S)N2CCN(Cc3ccccc3)CC2)c(=O)n(-c2ccccc2)n1C | > 100 µM |  |
